For experiment [1], the target named is Endogenous VAPB (mouse (endogenous in C2C12)) (UniProt Q9QY76). Nature of the experiment: co-IP; endogenous proteins in C2C12 myoblast lysate; endogenous VAPB immunoprecipitated (the legend of Fig. 2b says IRS-1 antibodies), protein A/G agarose, Western blot; cells with or without 100 ng/mL IGF-1 for 2.5 min after serum starvation (enhanced), Tg or Tu for 3 h (impaired), expression of VAPB P56S (reduced).

Protein sequences, listed by entry. Tags and fused reporters are not part of them. Lines headed by an entry give the natural chain unless they say otherwise; changes in a name come on top. Chains listed by the source or under a name are the forms on record and can include a tag or linker.
UniProt Q9QY76: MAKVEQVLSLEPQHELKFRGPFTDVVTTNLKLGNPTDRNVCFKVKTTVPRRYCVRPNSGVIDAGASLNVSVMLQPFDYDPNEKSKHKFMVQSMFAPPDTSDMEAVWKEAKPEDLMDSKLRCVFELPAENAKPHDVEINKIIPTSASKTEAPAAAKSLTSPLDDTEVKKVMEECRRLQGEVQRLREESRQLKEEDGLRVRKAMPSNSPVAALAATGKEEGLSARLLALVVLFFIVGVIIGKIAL
HA-VAPB KMDD mutant (Q9QY76, form named): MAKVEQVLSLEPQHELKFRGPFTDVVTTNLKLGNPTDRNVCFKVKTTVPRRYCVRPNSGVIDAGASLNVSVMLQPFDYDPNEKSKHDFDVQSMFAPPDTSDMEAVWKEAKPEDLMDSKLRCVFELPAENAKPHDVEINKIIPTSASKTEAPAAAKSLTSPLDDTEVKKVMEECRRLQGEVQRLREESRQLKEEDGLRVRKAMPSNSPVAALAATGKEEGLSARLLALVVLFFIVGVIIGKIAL
UniProt P35569: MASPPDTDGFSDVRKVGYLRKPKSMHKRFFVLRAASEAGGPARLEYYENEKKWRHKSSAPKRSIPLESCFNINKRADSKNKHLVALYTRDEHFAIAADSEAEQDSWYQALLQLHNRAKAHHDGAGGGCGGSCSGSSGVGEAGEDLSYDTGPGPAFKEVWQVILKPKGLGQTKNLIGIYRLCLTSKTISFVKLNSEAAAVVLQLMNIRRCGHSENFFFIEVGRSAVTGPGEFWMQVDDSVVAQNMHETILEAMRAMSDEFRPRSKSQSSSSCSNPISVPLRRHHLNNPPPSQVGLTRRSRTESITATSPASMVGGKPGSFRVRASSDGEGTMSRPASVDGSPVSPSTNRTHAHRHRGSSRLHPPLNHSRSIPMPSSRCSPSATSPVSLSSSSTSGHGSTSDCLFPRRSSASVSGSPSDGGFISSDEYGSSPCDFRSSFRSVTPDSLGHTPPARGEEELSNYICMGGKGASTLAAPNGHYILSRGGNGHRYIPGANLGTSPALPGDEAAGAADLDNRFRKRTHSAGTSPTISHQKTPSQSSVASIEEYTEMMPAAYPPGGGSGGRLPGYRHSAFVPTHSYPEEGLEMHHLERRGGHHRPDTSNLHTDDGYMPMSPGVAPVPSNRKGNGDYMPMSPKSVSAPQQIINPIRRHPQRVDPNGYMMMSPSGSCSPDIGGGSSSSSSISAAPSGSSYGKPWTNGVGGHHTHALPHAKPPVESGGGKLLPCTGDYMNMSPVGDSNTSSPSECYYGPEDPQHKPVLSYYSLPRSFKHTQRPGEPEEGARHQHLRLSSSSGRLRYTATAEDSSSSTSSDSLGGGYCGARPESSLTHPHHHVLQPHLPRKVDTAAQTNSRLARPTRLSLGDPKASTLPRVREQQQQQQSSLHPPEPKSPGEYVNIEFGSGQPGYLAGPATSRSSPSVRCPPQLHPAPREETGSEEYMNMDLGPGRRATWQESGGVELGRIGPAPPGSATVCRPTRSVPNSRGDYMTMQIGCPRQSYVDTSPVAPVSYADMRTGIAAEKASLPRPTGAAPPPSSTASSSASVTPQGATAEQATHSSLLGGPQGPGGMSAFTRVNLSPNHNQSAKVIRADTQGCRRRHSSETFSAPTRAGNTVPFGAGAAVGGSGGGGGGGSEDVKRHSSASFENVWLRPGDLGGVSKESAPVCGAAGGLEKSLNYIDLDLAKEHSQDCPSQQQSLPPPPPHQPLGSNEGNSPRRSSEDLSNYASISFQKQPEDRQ
FLAG-tagged IRS-1 2YA mutant (P35569, form named): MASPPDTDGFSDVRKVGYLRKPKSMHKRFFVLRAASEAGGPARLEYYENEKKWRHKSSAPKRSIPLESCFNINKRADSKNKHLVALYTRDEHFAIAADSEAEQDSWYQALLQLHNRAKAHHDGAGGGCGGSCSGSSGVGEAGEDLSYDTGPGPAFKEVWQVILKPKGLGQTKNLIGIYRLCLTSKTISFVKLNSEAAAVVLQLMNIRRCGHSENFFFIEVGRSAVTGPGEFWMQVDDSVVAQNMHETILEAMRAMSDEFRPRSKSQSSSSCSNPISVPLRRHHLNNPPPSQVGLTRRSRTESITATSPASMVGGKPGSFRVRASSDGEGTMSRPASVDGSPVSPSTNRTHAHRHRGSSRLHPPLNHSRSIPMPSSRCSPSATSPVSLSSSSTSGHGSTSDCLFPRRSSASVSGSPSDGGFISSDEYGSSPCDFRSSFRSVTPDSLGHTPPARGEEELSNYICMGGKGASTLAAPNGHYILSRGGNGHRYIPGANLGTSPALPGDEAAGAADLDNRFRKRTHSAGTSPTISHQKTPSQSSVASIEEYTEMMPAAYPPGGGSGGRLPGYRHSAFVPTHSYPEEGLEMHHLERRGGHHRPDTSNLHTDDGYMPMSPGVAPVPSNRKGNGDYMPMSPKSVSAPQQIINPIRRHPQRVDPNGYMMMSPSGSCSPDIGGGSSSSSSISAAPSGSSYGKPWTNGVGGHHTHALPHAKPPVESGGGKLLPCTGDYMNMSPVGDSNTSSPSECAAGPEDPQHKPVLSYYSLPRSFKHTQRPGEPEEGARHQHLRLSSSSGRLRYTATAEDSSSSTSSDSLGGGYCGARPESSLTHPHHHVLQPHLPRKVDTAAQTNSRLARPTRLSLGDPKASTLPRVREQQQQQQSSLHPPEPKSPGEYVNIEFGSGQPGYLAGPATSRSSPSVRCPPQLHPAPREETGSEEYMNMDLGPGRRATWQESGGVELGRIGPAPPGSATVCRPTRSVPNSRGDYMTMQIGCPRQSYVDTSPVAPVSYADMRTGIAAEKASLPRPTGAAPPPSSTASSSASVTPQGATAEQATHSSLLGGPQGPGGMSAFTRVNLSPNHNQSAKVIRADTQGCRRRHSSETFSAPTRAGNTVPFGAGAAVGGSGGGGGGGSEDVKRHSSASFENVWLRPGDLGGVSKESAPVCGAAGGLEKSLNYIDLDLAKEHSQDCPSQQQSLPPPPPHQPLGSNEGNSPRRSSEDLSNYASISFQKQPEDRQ

The target in the next experiment is GST-VAPB fusion protein (UniProt Q9QY76). In words: pull-down; GST or GST-VAPB on beads incubated with FLAG-IRS-1 eluted by FLAG peptide from anti-FLAG gel; 4 °C, 2–3 h; 200 mM NaCl, 50 mM Tris pH 7.3, 0.25 mM EDTA, 1% sodium deoxycholate, 1% Triton X-100; Western blot with anti-FLAG; both purified. For orientation: In western blotting, separated proteins are transferred to a membrane and probed.

The next experiment addresses FLAG-tagged VAPB (UniProt Q9QY76). Nature of the experiment: co-IP; tagged constructs co-transfected into 293T cells; lysates immunoprecipitated with anti-FLAG M2 beads; Western blot; lysis buffer 150 mM NaCl, 50 mM Tris pH 7.3, 1% sodium deoxycholate, 1% Triton X-100.
For experiment [2], the target named is FLAG-tagged IRS-1 (mouse) (UniProt P35569). The experiment is described as above.
Experiment [3] addresses FLAG-tagged IRS-1 2YA mutant (mouse) (UniProt P35569). The experiment is described as above.
Experiment [4] concerns the target FLAG-tagged IRS-1 F766A mutant (mouse) (UniProt P35569). The description is as above.

These are yes or no findings as the source states them, for the method shown. For some of these results: In cells and extracts the contact can be indirect. Some results given as binding are weak or reduced against the parent protein; the word gives no strength.

As for “Endogenous IRS-1 (from UniProt P35569 1-1233)”, the binding result in experiment [1] is recorded as “binds”.

“FLAG-tagged IRS-1 (from UniProt P35569 1-1233)”: in the experiment with GST-VAPB fusion protein, the binding entry was “binds”. For GFP-IRS-1 (from UniProt P35569 1-1233), the binding entry with FLAG-tagged VAPB is recorded as “binds”. As for HA-VAPB (from UniProt Q9QY76 1-243), the values for the binding result in experiment [2], in experiment [3] and in experiment [4] were “binds”, “no binding” and “binds”, respectively.

With “HA-VAPB KMDD mutant (from UniProt Q9QY76 1-243)”, the binding entry in experiment [2] is listed as “no binding”.

The values above are taken from article PMC10394085.
